Measured values from patent US12662541B2, “Antibody-drug conjugates against the receptor tyrosine kinase EphA5” (Rutgers, The State University of New Jersey, priority 2021, dated 2026).
Entries after “also recorded” stand apart in the source; their conditions may differ. Like-named read-outs stand apart in the source and are kept apart here.

How the values were obtained:
rhEphA5 antigen = biological target: T1, rhEphA5 antigen (Homo sapiens, UniProt P54756); experiment: kd (1/s)
T1 construct: purchased R and D systems 3036-A5
T1 sequence (P54756 25-1037 limits assumed): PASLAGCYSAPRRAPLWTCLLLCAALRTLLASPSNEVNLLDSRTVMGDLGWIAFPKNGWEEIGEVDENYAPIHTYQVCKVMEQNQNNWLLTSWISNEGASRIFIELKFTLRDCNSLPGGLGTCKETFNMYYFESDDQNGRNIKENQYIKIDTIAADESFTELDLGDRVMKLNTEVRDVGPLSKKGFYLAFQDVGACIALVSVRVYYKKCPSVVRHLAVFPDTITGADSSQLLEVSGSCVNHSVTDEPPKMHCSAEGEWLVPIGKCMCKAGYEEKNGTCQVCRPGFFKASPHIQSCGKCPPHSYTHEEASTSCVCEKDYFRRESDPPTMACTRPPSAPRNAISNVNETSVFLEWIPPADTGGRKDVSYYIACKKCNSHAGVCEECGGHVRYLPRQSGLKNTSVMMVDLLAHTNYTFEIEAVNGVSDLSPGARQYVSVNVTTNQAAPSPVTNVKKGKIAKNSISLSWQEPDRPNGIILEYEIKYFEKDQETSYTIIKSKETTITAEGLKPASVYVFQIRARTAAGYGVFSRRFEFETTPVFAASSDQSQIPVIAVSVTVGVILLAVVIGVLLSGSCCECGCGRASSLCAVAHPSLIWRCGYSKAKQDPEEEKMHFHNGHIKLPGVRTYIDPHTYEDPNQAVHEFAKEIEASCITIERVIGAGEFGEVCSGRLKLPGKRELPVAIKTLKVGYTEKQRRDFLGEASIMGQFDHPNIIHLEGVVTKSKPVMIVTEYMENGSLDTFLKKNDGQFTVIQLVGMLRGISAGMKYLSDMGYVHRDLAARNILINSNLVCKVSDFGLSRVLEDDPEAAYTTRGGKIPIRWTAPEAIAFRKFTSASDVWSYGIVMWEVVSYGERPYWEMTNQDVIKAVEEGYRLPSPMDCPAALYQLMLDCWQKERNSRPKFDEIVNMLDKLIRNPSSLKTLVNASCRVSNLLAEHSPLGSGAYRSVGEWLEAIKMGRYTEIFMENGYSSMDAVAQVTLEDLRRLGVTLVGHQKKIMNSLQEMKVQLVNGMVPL
Protocol: Table printed on a drawing sheet, FIG. 13
Head of the field: kd (1/s)
The patent's description of the figure: FIG. 13 is a table illustrating the single cycle kinetic parameters of chimeric (VH0/VK0) and humanized 11C12 variants (tested as cell culture supernatants) binding to rhEphA5 antigen as determined using the Biacore T200. The relative KD was calculated by dividing the KD of the humanized variant by that of the VH0/VK0 (top row) assayed in the same experiment. The variants marked with ‘*’ have KD values that are within two-fold of, or are better than, the chimeric antibody. The chimeric and selected variants marked in ‘#’ were identified as the main leads for purification. […]
Where the first naming reader finds the target: description_of_the_figure: humanized 11C12 variants (tested as cell culture supernatants) binding to rhEphA5 antigen as determined using the Biacore T200

[1] = tested on: patient-derived xenograft model (PDX) of breast cancer, ER, PR, and HER2 negative invasive ductal carcinoma; experiment: Triple-negative breast cancer PDX efficacy (Example 4); assay type: in vivo, mice; details: 5 doses of 10 mg/kg every 7 days; controls reached endpoints within 16 days
Protocol: Lastly, a study was performed using a patient-derived xenograft model (PDX) of breast cancer. Briefly, tissue from an ER, PR, and HER2 negative (triple-negative) invasive ductal carcinoma breast tumor was xenografted into mice. […] After engraftment but prior to treatment, xenograft tissue was evaluated for the expression of EphA5 (FIG. 98, left). Treatment consisted of 5 doses of MMAE-conjugate ADC at 10 mg/kg administered every 7 days.

[2] = tested on: H522, H460, A549 and H1299 cells; experiment: Incucyte cytotoxicity of ADC (% confluence); assay type: cell-based, human
[3] = tested on: A549 cell line-derived human lung cancer xenograft model; experiment: A549 xenograft efficacy; assay type: in vivo, mice
[4] = Body weight of tumor-bearing mice pre- and post-treatment, cell line xenograft studies
[5] = tested on: H460-derived xenograft model of human lung cancer; experiment: H460 xenograft efficacy; assay type: in vivo, mice; details: 10 mg/kg every 5 days, 3 doses; for tumors with full regression: group 3 n=9 (MMAE ADC), n=8 (SN-38 ADC)
[6] = tested on: H522-derived Xenograft Model of Human Lung Cancer; experiment: H522 xenograft efficacy; assay type: in vivo, mice; details: 10 mg/kg i.v. weekly, 3 doses, FIGS. 72, 74, 76
[7] = tested on: PDX model TM00096 (BR085F), triple negative breast cancer; experiment: PDX TM00096 efficacy; assay type: in vivo, mice; details: for tumor weight compared to PBS (placebo): TM00096, 4 weekly doses of 10 mg/kg; for tumor response (tumor volume): TM00096, 10 mg/kg weekly tail vein, 5 doses (ADC1, ADC2) or 4 doses (ADC3, ADC4), here ADC2 = VH4Vk3-ThioBridge-VCP-MMAE
Protocol: Test Animals. The present studies were performed using female NSG™ mice implanted with the PDX model TM00096 (BR085F) purchased from Jackson Laboratories. These mice are extremely immunodeficient and carry two mutations: severe combined immune deficiency (scid) and a complete null allele of the IL2 receptor common gamma chain (IL2rg^null). The scid mutation is a mutation in the DNA repair complex protein Prkdc and renders the mice B and T cell deficient. The IL2rg^null mutation prevents cytokine signaling through multiple receptors, leading to a deficiency in functional NK cells. This severe immunodeficiency allows the implantation of patient derived xenografts (PDX) and growth of human tissue-based tumors in the mice. These tumors have similar characteristics to the human tumors from which they are derived (e.g., gene expression) and are predictive of human response to therapeutic agents. The initial and final diagnosis of the patient from which the model was derived was invasive ductal carcinoma AJCC IIA/Grade 3. The primary site of the tumor was breast, sample for implantation was obtained from the metastatic site (lung). The tumor was not treatment naïve. The patient from which the sample was derived was a person. The sample was obtained by surgical resection. The host strain of the sample for engraftment was NOD.Cg-Prkdc^scid Il2rg^tm1Wj1/SzJ (aka NSG or NOD Scid gamma).
Mice received 5 weekly doses of ADC1 or ADC2, or 4 weekly doses of ADC3 or ADC4 at 10 mg/kg or PBS via tail vein injection. Animals were dosed on days 0, 7, 14, 21 and 28 followed by 2 weeks of observation (day 28-40) without treatment (or until cessation of study). The number of mice used per group averaged n=7-10 with some mice presenting with more than 1 tumor implanted subcutaneously. In those cases, each tumor size was measured and recorded independently. Measurements were performed 2-3 times weekly with the aid of a digital caliper (Fisherbrand™ Traceable™ Digital Carbon Fiber Calipers). Studies lasted an average of 40 days or until maximum allowed tumor volume was reached and/or skin ulceration was noted. All studies included a control group of an equal number of mice to those in the treatment group. Control groups received PBS tail vein injections and were submitted to the same handling procedures as TA treated mice. First treatment was administered when tumors reached 100-150 mm3 volume.

[8] = Body weight and tolerability of PDX-bearing mice before and after treatment; details: TM00096-bearing mice, 10 mg/kg weekly; ADC2 = VH4Vk3-ThioBridge-VCP-MMAE
[9] = H460 xenograft, 10 mg/kg every 5 days, 3 doses
[10] = H522 xenograft, 10 mg/kg weekly, 3 doses

B1: VH0/VK1: control antibody produced by transient transfection, chimeric VH0 with humanized VK1 (protein)
heavy chain: EVTLKESGGGLVQPGGSRKLSCAASGFTFSTFGIHWVRQAPEKGLEWVAYISGASTTIYYADTVKGRFTISRDNPKNTLFLQMTSLRSEDTAMYYCARYGTSFPYGLDYWGQGTSVTVSSASTKGPSVFPLAPSSKSTSGGTAALGCLVKDYFPEPVTVSWNSGALTSGVHTFPAVLQSSGLYSLSSVVTVPSSSLGTQTYICNVNHKPSNTKVDKRV[letters of human IgG1 Fc left out]
light chain: DIVMTQSPGSLAVSLGERATINCKASQSVDYDGDSYMNWYQQKPGKAPKLLIYGASNLESGIPDRFSGSGSGTDFTLTISRLEEEDAASYYCQQSNEDPFTFGQGTKLEIKRTVAAPSVFIFPPSDEQLKSGTASVVCLLNNFYPREAKVQWKVDNALQSGNSQESVTEQDSKDSTYSLSSTLTLSKADYEKHKVYACEVTHQGLSSPVTKSFNRGEC
kd (rhEphA5 antigen): 0.00137 s⁻¹

B2: VH4Vk3-ThioBridge®-VCP-MMAE (conjugate)
heavy: EVQLVESGGGLVQPGGSLKLSCAASGFTFSTFGIHWVRQAPGKGLEWVAYISGASTTIYYADTVKGRFTISRDNSKNTLYLQMNSLRAEDTAVYYCARYGTSFPYGLDYWGQGTLVTVSSASTKGPSVFPLAPSSKSTSGGTAALGCLVKDYFPEPVTVSWNSGALTSGVHTFPAVLQSSGLYSLSSVVTVPSSSLGTQTYICNVNHKPSNTKVDKRV[letters of human IgG1 Fc left out]
light: DIVMTQSPDSLAVSLGERATINCKASQSVDYDGDSYMNWYQQKPGKAPKLLIYGASNLESGIPDRFSGSGSGTDFTLTISRLEPEDAAVYYCQQSNEDPFTFGQGTKLEIKRTVAAPSVFIFPPSDEQLKSGTASVVCLLNNFYPREAKVQWKVDNALQSGNSQESVTEQDSKDSTYSLSSTLTLSKADYEKHKVYACEVTHQGLSSPVTKSFNRGEC
tumor growth [1]: little measurable tumor growth | ADC induced cell death (decrease of confluence) ([2]; EphA5 expression H522 (++++)>H460 (+++)>A549 (++)=H1299 (++)): increasing amounts of ADC induced cell death which is dependent on the levels of expression of the target EphA5 | tumors with full regression ([3]; ADC-treated n=5, 10 mg/kg i.v.): 4 tumors | tumors with partial regression ([3]; ADC-treated n=5, sustained for the 32 days of the study): One tumor showed partial regression | change in body weight, first dosing vs termination ([4]; A549 xenograft, 10 mg/kg): no significant changes in body weight | change in body weight, first dosing vs termination [4, 9]: no changes in body weight | change in body weight, first dosing vs termination [4, 10]: no significant changes in body weight | tumors with full regression [5]: 2 tumors | tumor regression [6]: Full regression was observed for all ADC-treated tumors

B3: VH4Vk3-ThioBridge®-(VCP-SN-38)2 (conjugate)
heavy: EVQLVESGGGLVQPGGSLKLSCAASGFTFSTFGIHWVRQAPGKGLEWVAYISGASTTIYYADTVKGRFTISRDNSKNTLYLQMNSLRAEDTAVYYCARYGTSFPYGLDYWGQGTLVTVSSASTKGPSVFPLAPSSKSTSGGTAALGCLVKDYFPEPVTVSWNSGALTSGVHTFPAVLQSSGLYSLSSVVTVPSSSLGTQTYICNVNHKPSNTKVDKRV[letters of human IgG1 Fc left out]
light: DIVMTQSPDSLAVSLGERATINCKASQSVDYDGDSYMNWYQQKPGKAPKLLIYGASNLESGIPDRFSGSGSGTDFTLTISRLEPEDAAVYYCQQSNEDPFTFGQGTKLEIKRTVAAPSVFIFPPSDEQLKSGTASVVCLLNNFYPREAKVQWKVDNALQSGNSQESVTEQDSKDSTYSLSSTLTLSKADYEKHKVYACEVTHQGLSSPVTKSFNRGEC
tumor weight compared to PBS (placebo) [7]: no significant reduction in weight as compared to placebo | tumor response (tumor volume) [7]: delayed tumor growth followed by rapid re-growth and early termination due to tumor burden; also recorded: modest in vivo anti-tumor activity | ADC induced cell death (decrease of confluence) [2]: increasing amounts of ADC induced cell death which is dependent on the levels of expression of the target EphA5 | change in body weight, first dosing vs termination ([4]; A549 xenograft, 10 mg/kg): no significant changes in body weight | change in body weight, first dosing vs termination [4, 9]: no changes in body weight | change in body weight, first dosing vs termination [4, 10]: no significant changes in body weight | tumors with full regression [5]: 1 tumors | tumor regression [6]: Full regression was observed for all ADC-treated tumors | change in body weight before and after treatment [8]: no significant changes in body weight

B4: VH5Vk3-ThioBridge®-(VCP-SN-38)2 (conjugate)
heavy: EVQLVESGGGLVQPGGSLKLSCAASGFTFSTFGIHWVRQAPGKGLEWVAYISGASTTIYYADSVKGRFTISRDNSKNTLYLQMNSLRAEDTAVYYCARYGTSFPYGLDYWGQGTLVTVSSASTKGPSVFPLAPSSKSTSGGTAALGCLVKDYFPEPVTVSWNSGALTSGVHTFPAVLQSSGLYSLSSVVTVPSSSLGTQTYICNVNHKPSNTKVDKRV[letters of human IgG1 Fc left out]
light: DIVMTQSPDSLAVSLGERATINCKASQSVDYDGDSYMNWYQQKPGKAPKLLIYGASNLESGIPDRFSGSGSGTDFTLTISRLEPEDAAVYYCQQSNEDPFTFGQGTKLEIKRTVAAPSVFIFPPSDEQLKSGTASVVCLLNNFYPREAKVQWKVDNALQSGNSQESVTEQDSKDSTYSLSSTLTLSKADYEKHKVYACEVTHQGLSSPVTKSFNRGEC
tumor weight compared to PBS (placebo) [7]: slightly reduced in weight compared to the PBS control group | tumor response (tumor volume) [7]: delayed tumor growth followed by rapid re-growth and early termination due to tumor burden; also recorded: modest in vivo anti-tumor activity | ADC induced cell death (decrease of confluence) [2]: increasing amounts of ADC induced cell death which is dependent on the levels of expression of the target EphA5 | tumor response ([3]; 10 mg/kg i.v. weekly, 3 doses): Partial regressions of tumors treated with the ADC VH5Vk3-ThioBridge®-(VCP-SN-38)2 (10 mg/kg) were observed until day 14, after which tumors progressed steadily until day 20 | change in body weight, first dosing vs termination ([4]; A549 xenograft, 10 mg/kg): No significant differences in the body weights | change in body weight, first dosing vs termination [4, 9]: no significant changes in body weight | tumors with partial regression ([5]; n=9): 7 tumors | change in body weight before and after treatment [8]: no significant changes in body weight
